In all, about 310,000 compounds went through this assay and about 18,000 (5.8%) were called active. Inconclusive results, whose numbers are uncertain, are shown with a selection of clear calls. Calls follow the shape of the dose curve; as a rule, active = well fitted inhibition curve with a large enough effect; inconclusive = small, poorly fitted or top-dose-only effect, or another doubt; inactive = no such curve, though single readings can be large or run the other way. Potencies of inconclusive entries are left out as doubtful fits.
Experiment: Primary qHTS for delayed death inhibitors of the malarial parasite plastid, 48 hour incubation
Conditions: P. falciparum luciferase growth in erythrocytes; series mostly up to 28.7 µM; activity change, negative = inhibition: at the top concentration
Outline: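 Cell-based growth assay: transgenic P. falciparum expressing firefly luciferase, cultured in red cells within RPMI 1640 containing 0.5% w/v Albumax, 24 mM bicarbonate and gentamycin. A drop in luciferase activity indicates inhibition.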
With `CN(C)S(=O)(=O)c1ccc(N2CCCC2)c(C(=O)NCC2CCCCC2)c1` the Potency was active: 9.28 µM.
With `CSc1ccc(CNC(=O)C(C)n2nc(C)c3c(C)n(-c4ccccc4)nc3c2=O)cc1` (stereo not given) the “activity change, negative = inhibition” value was inactive: -21.3%.
For `Cc1cc(NC(=O)CNCC(c2ccccc2)N(C)C)c([N+](=O)[O-])cc1C` (stereo not given), the “activity change, negative = inhibition” value was inactive: -16.1%.
For `COc1ccc2sc(-c3ccccc3OC)c(-c3ccc(OC)nc3)c2c1`, the Potency was inconclusive [inhibitor, single point].
With `CN(Cc1cn(-c2ccccc2)nc1-c1ccc(Cl)cc1)C(=O)CCC(=O)O` the “activity change, negative = inhibition” value was inactive: -17%.
With `COc1ccc(CCNc2c([N+](=O)[O-])ncn2C)cc1OC` the Potency was inconclusive [inhibitor, single point].
In the case of `CSC(=S)NCc1cccnc1`, the Potency is reported as inconclusive [inhibitor, single point].
In the case of `COc1cc(CNC(=O)c2cc(C(=O)NCc3cc(OC)cc(OC)c3)n(C)n2)cc(OC)c1`, the Potency is reported as inconclusive [inhibitor, single point].
With `COc1cccc(CNCc2ccc(OC)cc2OC)c1` the “activity change, negative = inhibition” value was inactive: 0.441%.
For `Cc1ccc(S(=O)(=O)N2CCOCC2)cc1NC(=O)CSc1ncccn1`, the Potency was inconclusive [inhibitor, partial curve, poor fit].
For `COc1ccc(N2CCN(C(=O)CCCOc3cc(=O)n(C)c4ccccc34)CC2)cc1`, the Potency was inconclusive [inhibitor, full curve].
For `Cc1cc(N/N=C/c2ccc(O)cc2O)nc(N2CCOCC2)n1`, the Potency was inconclusive [inhibitor, partial curve, poor fit].
In the case of `Cc1c(C(=O)Nc2ccccc2)sc2nc(-c3ccccc3)cn12`, the Potency is reported as inconclusive [inhibitor, single point].
For `Cc1ccc2c(CN3CCC(C)CC3)cc(=O)oc2c1C`, the Potency was inconclusive [inhibitor, partial curve, poor fit].
For `CCOc1ccc(NS(=O)(=O)c2ccc(NC(=O)c3ccccn3)cc2)cc1`, the Potency was inconclusive [inhibitor, single point].
For `Cc1ccc2cc(CN(Cc3ccc4c(c3)OCO4)Cc3nnnn3Cc3ccco3)c(=O)[nH]c2c1`, the Potency was inconclusive [inhibitor, partial curve, poor fit].
For `COc1ccc(-n2c(SCC(=O)Nc3nccs3)nc3c(c2=O)SCC3)cc1`, the Potency was inconclusive [inhibitor, partial curve].
With `CCCCc1n[nH]c(=S)n1Cc1ccc(C)cc1` the Potency was inconclusive [inhibitor, partial curve, poor fit].
With `O=C(COc1ccc2ccccc2c1)Nc1nc2ccccc2[nH]1` the “activity change, negative = inhibition” value was inactive: 23.9%.
For `CC1Cn2c(nnc2-c2cccc(Cl)c2)S1` (stereo not given), the “activity change, negative = inhibition” value was inactive: 7.19%.
With `C/C(=N\Nc1cc(C)nc(-c2ccccc2O)n1)c1ccccc1O` the Potency was inconclusive [inhibitor, single point].
With `CN(C)C(=O)c1ccc(NC(=O)c2cccc(S(=O)(=O)N3CCCc4ccccc43)c2)cc1` the Potency was active: 5.22 µM.
For `CCc1cccc(CC)c1NC(=O)CCCSc1nc2ccccc2s1`, the Potency was inconclusive [inhibitor, single point].
In the case of `OC(CNC1CCCCCC1)COc1cccc2ccccc12` (stereo not given), the Potency is reported as active: 1.65 µM.
In the case of `O=c1cc(CSc2nnc(-c3cccs3)n2Cc2ccccc2)nc2sc3ccccc3n12`, the Potency is reported as inconclusive [inhibitor, single point].
In the case of `Cc1cccc(CSc2nnc(CCNC(=O)OC(C)(C)C)o2)c1`, the “activity change, negative = inhibition” value is reported as inactive: -17.9%.
For `CN(C)CC(CCC(CN(C)C)C(=O)c1ccccc1)C(=O)c1ccccc1` (stereo not given), the Potency was active: 6.57 µM.
For `Cc1ccccc1N(C(=O)c1snc(C(N)=O)c1N)C(C(=O)NC1CCCC1)c1ccco1` (stereo not given), the Potency was inconclusive [inhibitor, single point].
In the case of `CC(=O)C1=C(C)Nc2ncnn2C1c1cccc(OCc2ccccc2)c1` (stereo not given), the Potency is reported as active: 10.4 µM.
In the case of `Cc1cc(C)c2nc(SCC(=O)N3CC(=O)Nc4ccccc43)c(C#N)cc2c1`, the Potency is reported as active: 13.1 µM.
In the case of `Cc1ccc(-c2nnc(N3CCOCC3)c3ccccc23)cc1S(=O)(=O)NCC1CCCO1` (stereo not given), the Potency is reported as active: 8.28 µM.
With `Cn1c(=O)c2c(nc(Oc3ccccn3)n2C)n(C)c1=O` the “activity change, negative = inhibition” value was inactive: 21%.
In the case of `CC(C)[C@H](NC(=O)OC(C)(C)C)c1nnc(SCc2cccc(F)c2)o1`, the Potency is reported as inconclusive [inhibitor, single point].
With `O=[N+]([O-])c1nn(-c2ccccc2)n(O)c1=NC1CCN(Cc2ccccc2)CC1` the Potency was inconclusive [inhibitor, single point].
With `N/N=C/C(=N\Nc1ccc(Cl)cc1)C(=O)c1ccncc1` the Potency was inconclusive [inhibitor, single point].
For `CCCn1cnc2cc(NCc3cccc(OC)c3)ccc21`, the Potency was inconclusive [inhibitor, single point].
In the case of `CCOc1ccc(C2/C(=C(/O)c3ccc(S(=O)(=O)N4CCCCC4)cc3)C(=O)C(=O)N2CCCOC)cc1OC` (stereo not given), the Potency is reported as inconclusive [inhibitor, single point].
For `COc1ccc2nc(C)cc(C(=O)O)c2c1`, the Potency was inconclusive [inhibitor, partial curve, poor fit].
For `Cc1ccc(-n2cc(CNCCn3nc(C)cc3C)c(-c3ccc(F)cc3)n2)cc1`, the Potency was inconclusive [inhibitor, partial curve].
For `Cc1ccc(-c2nn(-c3cccc(F)c3)cc2CNCc2cccnc2)o1`, the Potency was inconclusive [inhibitor, partial curve, poor fit].
In the case of `COC(=O)C1=C(c2ccc(F)cc2OCc2ccccc2)C[C@@H]2CC[C@H]1N2C(=O)NC1CCCCC1`, the Potency is reported as inconclusive [inhibitor, single point].
For `CC1(C)Oc2ccc3ccc(=O)oc3c2-c2cn[nH]c21`, the Potency was inconclusive [inhibitor, single point].
With `O=[N+]([O-])c1ccc(O)c(Nc2ncnc3ccccc23)c1` the Potency was inconclusive [inhibitor, single point].
With `COC(=O)[C@H](Cc1c[nH]c2ccccc12)NC(=O)Cc1c[nH]c2ccccc12` the Potency was inconclusive [inhibitor, partial curve, poor fit].
For `COc1ccccc1-c1nnc2sc(COc3ccc(Cl)cc3)nn12`, the Potency was inconclusive [inhibitor, partial curve].
In the case of `O=C(CCNc1cccc(Cl)c1)c1ccco1`, the “activity change, negative = inhibition” value is reported as inactive: 5.28%.
In the case of `N#Cc1ccccc1OCC(=O)N1CCN(S(=O)(=O)c2ccc(Cl)cc2)CC1`, the Potency is reported as inconclusive [inhibitor, single point].
In the case of `CCOC(=O)C1(Cc2ccc(OC)cc2)CCN(C(=O)CN2CCN(CC)CC2)CC1`, the “activity change, negative = inhibition” value is reported as inactive: -19.8%.
For `O=C(NC1CCCN(Cc2ccc(Cl)cc2)C1)c1ccccc1C(F)(F)F` (stereo not given), the Potency was inconclusive [inhibitor, single point].
In the case of `Cc1nn(-c2ccc(F)cc2)c2nc(N)c(C#N)c(-c3cccs3)c12`, the Potency is reported as inconclusive [inhibitor, single point].
For `Cc1cc2c(cn1)C(CCC#N)(CCC#N)c1ccccc1-2`, the “activity change, negative = inhibition” value was inactive: -16.3%.
For `NS(=O)(=O)c1ccc(CCNC(=O)c2nc(CS(=O)(=O)c3ccc(Cl)cc3)no2)cc1`, the Potency was inconclusive [inhibitor, partial curve].
With `CCCn1c2ccccc2c2cnn(CC(=O)NCCCN3CCCCC3CC)c(=O)c21` (stereo not given) the Potency was inconclusive [inhibitor, single point].
For `CN1CCN(c2ccc(NC(=O)c3ccc(C(F)(F)F)cc3)cn2)CC1`, the Potency was inconclusive [inhibitor, single point].
With `O=C(CSc1nc2ccccc2nc1N1CCCC1)Nc1ccc(F)cc1` the Potency was inconclusive [inhibitor, single point].
For `COc1ccc(NC(=O)Cn2c(=O)n(-c3ccccc3)c(=O)c3sccc32)c(OC)c1`, the Potency was inconclusive [inhibitor, partial curve, poor fit].
With `COC(=O)C1=C(C)N(Cc2ccccc2)C(=NCc2cc(OC)c(OC)c(OC)c2)N[C@H]1c1ccccc1` the Potency was inconclusive [inhibitor, partial curve, poor fit].
In the case of `COCC(C)n1c(SCc2ccc(OC)c(F)c2)nc2ccccc2c1=O` (stereo not given), the Potency is reported as inconclusive [inhibitor, partial curve, poor fit].
In the case of `CC1CCN(C2=NC(=O)/C(=C/c3ccc(O)cc3)S2)CC1`, the Potency is reported as inconclusive [inhibitor, partial curve, poor fit].
For `COc1cc2c(cc1OC)CN(CC(=O)Nc1ccc(C)c(C)c1)CC2`, the Potency was inconclusive [inhibitor, single point].
In the case of `Cc1ccc(S(=O)(=O)N2CCOC23CCN(C(=O)c2cc(Cl)ccc2Cl)CC3)cc1`, the Potency is reported as inconclusive [inhibitor, single point].
For `O=c1c2cc(Br)ccc2[nH]c(=S)n1Cc1ccccc1`, the Potency was inconclusive [inhibitor, single point].
For `COc1ccc(CNC(=O)[C@H](C)N2C(=O)N3CCc4c([nH]c5ccc(OC)cc45)[C@@]3(C)C2=O)cc1`, the Potency was inconclusive [inhibitor, partial curve, poor fit].
With `O=C(COc1ccc(S(=O)(=O)N2CCc3ccccc32)cc1Cl)NCc1ccccn1` the Potency was inconclusive [inhibitor, single point].
In the case of `CCOC(=O)C1(CC2CCCCO2)CCN(S(=O)(=O)c2cc(C)cs2)CC1` (stereo not given), the Potency is reported as inconclusive [inhibitor, single point].
% is scaled to controls: 0 for no effect and ±100 for the full control effect; potency is read from the fitted curve at half-maximal effect; tags tell the direction and shape of the fitted curve.
